# This is one part of the list.
# Columns and labels:
# Assay in all cases: glycan array binding signal (z-score within array); higher = stronger binding
# Conditions in all cases: glycan notation: IUPAC condensed, linker removed
# [1] = target: Gal(b1-3)GalNAc(b1-3)Gal(a1-4)Gal(b1-4)Glc
# In short: (§1)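 Negative Z-scores can be read as non-binding. The Z-score is calculated within each array and then averaged across arrays of one protein sequence at different concentrations or buffers and across linkers. Arrays, 3228 in all, were curated from the Consortium for Functional Glycomics database and kept only where the protein sequence was available.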
# [2] = target: Gal(b1-3)GalNAc(b1-4)Gal(b1-4)Glc
# In short: as §1
# [3] = target: Gal(b1-3)GalNAc(b1-4)[Neu5Ac(a2-3)]Gal(b1-4)Glc
# In short: as §1
# [4] = target: Gal(b1-3)GlcNAc
# In short: as §1
# [5] = target: Gal(b1-3)GlcNAc(a1-3)Gal(b1-4)GlcNAc
# In short: as §1
# [6] = target: Gal(b1-3)GlcNAc(a1-6)Gal(b1-4)GlcNAc
# In short: as §1
# [7] = target: Gal(b1-3)GlcNAc(b1-2)Man
# In short: as §1
# [8] = target: Gal(b1-3)GlcNAc(b1-2)Man(a1-3)[Gal(b1-3)GlcNAc(b1-2)Man(a1-6)]Man(b1-4)GlcNAc(b1-4)GlcNAc
# In short: as §1
# [9] = target: Gal(b1-3)GlcNAc(b1-2)Man(a1-3)[Gal(b1-3)GlcNAc(b1-2)Man(a1-6)]Man(b1-4)GlcNAc(b1-4)[Fuc(a1-6)]GlcNAc
# In short: as §1
# [10] = target: Gal(b1-3)GlcNAc(b1-2)Man(a1-3)[GlcNAc(b1-4)][Gal(b1-3)GlcNAc(b1-2)Man(a1-6)]Man(b1-4)GlcNAc(b1-4)GlcNAc
# In short: as §1
# [11] = target: Gal(b1-3)GlcNAc(b1-2)[Gal(b1-3)GlcNAc(b1-6)]Man(a1-6)[Gal(b1-3)GlcNAc(b1-2)Man(a1-3)]Man(b1-4)GlcNAc(b1-4)GlcNAc
# In short: as §1
# [12] = target: Gal(b1-3)GlcNAc(b1-3)Gal(b1-3)GlcNAc
# In short: as §1
# [13] = target: Gal(b1-3)GlcNAc(b1-3)Gal(b1-4)Glc
# In short: as §1
# [14] = target: Gal(b1-3)GlcNAc(b1-3)Gal(b1-4)GlcNAc
# In short: as §1
# [15] = target: Gal(b1-3)GlcNAc(b1-3)Gal(b1-4)GlcNAc(b1-2)Man(a1-3)[Gal(b1-3)GlcNAc(b1-3)Gal(b1-4)GlcNAc(b1-2)Man(a1-6)]Man(b1-4)GlcNAc(b1-4)GlcNAc
# In short: as §1
# [16] = target: Gal(b1-3)GlcNAc(b1-3)Gal(b1-4)GlcNAc(b1-2)[Gal(b1-3)GlcNAc(b1-3)Gal(b1-4)GlcNAc(b1-6)]Man(a1-6)[Gal(b1-3)GlcNAc(b1-3)Gal(b1-4)GlcNAc(b1-2)Man(a1-3)]Man(b1-4)GlcNAc(b1-4)[Fuc(a1-6)]GlcNAc
# In short: as §1
# [17] = target: Gal(b1-3)GlcNAc(b1-3)Gal(b1-4)GlcNAc(b1-3)Gal(b1-4)GlcNAc(b1-2)[Gal(b1-3)GlcNAc(b1-3)Gal(b1-4)GlcNAc(b1-3)Gal(b1-4)GlcNAc(b1-6)]Man(a1-6)[Gal(b1-3)GlcNAc(b1-3)Gal(b1-4)GlcNAc(b1-3)Gal(b1-4)GlcNAc(b1-2)Man(a1-3)]Man(b1-4)GlcNAc(b1-4)[Fuc(a1-6)]GlcNAc
# In short: as §1
# [18] = target: Gal(b1-3)GlcNAc(b1-3)Gal(b1-4)GlcNAc(b1-6)[Gal(b1-3)GlcNAc(b1-3)]Gal(b1-4)Glc
# In short: as §1
# [19] = target: Gal(b1-3)GlcNAc(b1-3)Gal(b1-4)[Fuc(a1-3)]GlcNAc
# In short: as §1
# [20] = target: Gal(b1-3)GlcNAc(b1-3)Gal(b1-4)[Fuc(a1-3)]GlcNAc(b1-6)[Gal(b1-3)GlcNAc(b1-3)]Gal(b1-4)Glc
# In short: as §1
# [21] = target: Gal(b1-3)GlcNAc(b1-3)GalNAc
# In short: as §1
# [22] = target: Gal(b1-3)GlcNAc(b1-6)Gal(b1-4)GlcNAc
# In short: as §1
# [23] = target: Gal(b1-3)GlcNAc(b1-6)GalNAc
# In short: as §1
# [24] = target: Gal(b1-3)GlcNAc(b1-6)[Gal(b1-3)]GalNAc
# In short: as §1
# [25] = target: Gal(b1-3)GlcNAc6S
# In short: as §1
# [26] = target: Gal(b1-3)[Fuc(a1-4)]GlcNAc
# In short: as §1
# [27] = target: Gal(b1-3)[Fuc(a1-4)]GlcNAc(b1-2)Man
# In short: as §1
# [28] = target: Gal(b1-3)[Fuc(a1-4)]GlcNAc(b1-2)Man(a1-3)[Gal(b1-3)[Fuc(a1-4)]GlcNAc(b1-2)Man(a1-6)]Man(b1-4)GlcNAc(b1-4)[Fuc(a1-6)]GlcNAc
# In short: as §1
# [29] = target: Gal(b1-3)[Fuc(a1-4)]GlcNAc(b1-3)Gal(b1-3)[Fuc(a1-4)]GlcNAc
# In short: as §1
# [30] = target: Gal(b1-3)[Fuc(a1-4)]GlcNAc(b1-3)Gal(b1-4)[Fuc(a1-3)]GlcNAc
# In short: as §1
# [31] = target: Gal(b1-3)[Fuc(a1-4)]GlcNAc(b1-6)GalNAc
# In short: as §1
# [32] = target: Gal(b1-3)[GlcNAc(b1-6)]GalNAc
# In short: as §1
# [33] = target: Gal(b1-3)[Neu5Ac(a2-6)]GalNAc
# In short: as §1
# [34] = target: Gal(b1-3)[Neu5Ac(a2-6)]GlcNAc(b1-4)Gal(b1-4)Glc
# In short: as §1
# [35] = target: Gal(b1-3)[Neu5Ac(b2-6)]GalNAc
# In short: as §1
# [36] = target: Gal(b1-4)Gal
# In short: as §1
# [37] = target: Gal(b1-4)GalNAc(a1-3)[Fuc(a1-2)]Gal(b1-4)GlcNAc
# In short: as §1
# [38] = target: Gal(b1-4)GalNAc(b1-3)[Fuc(a1-2)]Gal(b1-4)GlcNAc
# In short: as §1
binder,measurement,setting,value
PX14375l-pdi-526-25-526 (Parabacteroides distasonis) (protein) DEEPKSTLTDVAYYKTQSQMESNVNYLYRTGAIGSYVDFGSAYIGPFASIQEELTGYFSNSYEGQEIVCRYTRELTRQQNTMQLASKMDKVWDDCYRGINVANGAIKHMPEVPMDQATADRLTAEAKFFRAFNYFYLVKTFGAVPFYTDPYELAENMELPRTETSTIYNQIESDLKDAMNVLPEATFAANGHRITKYVAAMTLTDVYMYQHKYAEAAETVRIVVNSNHKLTTNDDLAMNSAFNKLRSTDDLDEAIYAYEYDNQISPSNWLPTYAFDGDASSNGLFGTYAITQKVHGPNDRYLNIYESNDLRRQPNQFYHWTYTNPKTGKVWNSVGNAACCWYYYDEDALLTTGRGTKDWNVYRYAEALLDAAESIAQSTGVTAEAAGYLAQVKARANMEGKTAAEIASSLQSMGKQAFIEECWTERLRELPLEFKMWDMCVRTGMFPNISETTPGQVTYIPLVGAKNASGATIKESDLLWPLSVNEIQRNPSLTQNEGYSAK,glycan array binding signal (z-score),[1],0.106
same,glycan array binding signal (z-score),[2],0.003
same,glycan array binding signal (z-score),[3],-0.143
same,glycan array binding signal (z-score),[4],-0.319
same,glycan array binding signal (z-score),[5],-0.152
same,glycan array binding signal (z-score),[6],-0.286
same,glycan array binding signal (z-score),[7],-0.206
same,glycan array binding signal (z-score),[8],0.136
same,glycan array binding signal (z-score),[9],-0.259
same,glycan array binding signal (z-score),[10],0.085
same,glycan array binding signal (z-score),[11],0.464
same,glycan array binding signal (z-score),[12],-0.192
same,glycan array binding signal (z-score),[13],0.08
same,glycan array binding signal (z-score),[14],-0.31
same,glycan array binding signal (z-score),[15],0.22
same,glycan array binding signal (z-score),[16],1.79
same,glycan array binding signal (z-score),[17],8.4
same,glycan array binding signal (z-score),[18],-0.181
same,glycan array binding signal (z-score),[19],-0.212
same,glycan array binding signal (z-score),[20],-0.125
same,glycan array binding signal (z-score),[21],-0.323
same,glycan array binding signal (z-score),[22],0.048
same,glycan array binding signal (z-score),[23],-0.012
same,glycan array binding signal (z-score),[24],-0.174
same,glycan array binding signal (z-score),[25],-0.287
same,glycan array binding signal (z-score),[26],-0.263
same,glycan array binding signal (z-score),[27],-0.015
same,glycan array binding signal (z-score),[28],-0.079
same,glycan array binding signal (z-score),[29],-0.258
same,glycan array binding signal (z-score),[30],-0.475
same,glycan array binding signal (z-score),[31],-0.037
same,glycan array binding signal (z-score),[32],-0.18
same,glycan array binding signal (z-score),[33],-0.246
same,glycan array binding signal (z-score),[34],-0.125
same,glycan array binding signal (z-score),[35],-0.364
same,glycan array binding signal (z-score),[36],-0.301
same,glycan array binding signal (z-score),[37],-0.264
same,glycan array binding signal (z-score),[38],-0.426

# Reference: the supplement of paper PMC8728848
